# Some of the results follow.
# Tests used:
# Assay in all cases: glycan array binding signal (z-score within array); higher = stronger binding
# Details in all cases: glycan notation: IUPAC condensed, linker removed; mutation: H262T
# [1] = molecular target: Neu5Ac(a2-6)GlcNAc(b1-4)GlcNAc
# Procedure, shortened: (§1)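 Arrays were curated from the Consortium for Functional Glycomics database, 3228 in total, and kept only where the protein sequence was available. Binding is expressed as a within-array Z-score. This score was averaged across arrays of the same protein sequence at different concentrations or buffers and across linkers, and negative values can be read as non-binding.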
# [2] = molecular target: Neu5Ac(a2-6)GlcNAc(b1-4)GlcNAc(b1-4)GlcNAc
# Procedure, shortened: as §1
# [3] = molecular target: Neu5Ac(a2-8)Neu5Ac
# Procedure, shortened: as §1
# [4] = molecular target: Neu5Ac(a2-8)Neu5Ac(a2-3)Gal(b1-3)GalNAc(b1-4)[Neu5Ac(a2-3)]Gal(b1-4)Glc
# Procedure, shortened: as §1
# [5] = molecular target: Neu5Ac(a2-8)Neu5Ac(a2-3)Gal(b1-3)GalNAc(b1-4)[Neu5Ac(a2-8)Neu5Ac(a2-3)]Gal(b1-4)Glc
# Procedure, shortened: as §1
# [6] = molecular target: Neu5Ac(a2-8)Neu5Ac(a2-3)Gal(b1-4)Glc
# Procedure, shortened: as §1
# [7] = molecular target: Neu5Ac(a2-8)Neu5Ac(a2-3)Gal(b1-4)GlcNAc
# Procedure, shortened: as §1
# [8] = molecular target: Neu5Ac(a2-8)Neu5Ac(a2-3)[Gal(b1-3)GalNAc(b1-4)]Gal(b1-4)Glc
# Procedure, shortened: as §1
# [9] = molecular target: Neu5Ac(a2-8)Neu5Ac(a2-3)[GalNAc(b1-4)]Gal(b1-4)Glc
# Procedure, shortened: as §1
# [10] = molecular target: Neu5Ac(a2-8)Neu5Ac(a2-8)Neu5Ac
# Procedure, shortened: as §1
# [11] = molecular target: Neu5Ac(a2-8)Neu5Ac(a2-8)Neu5Ac(a2-3)Gal(b1-4)Glc
# Procedure, shortened: as §1
# [12] = molecular target: Neu5Ac(a2-8)Neu5Ac(a2-8)Neu5Ac(a2-3)[Gal(b1-3)GalNAc(b1-4)]Gal(b1-4)Glc
# Procedure, shortened: as §1
# [13] = molecular target: Neu5Ac(a2-8)Neu5Ac(a2-8)Neu5Ac(a2-3)[GalNAc(b1-4)]Gal(b1-4)Glc
# Procedure, shortened: as §1
# [14] = molecular target: Neu5Ac(a2-8)Neu5Ac(a2-8)Neu5Ac(a2-8)Neu5Ac(a2-3)[GalNAc(b1-4)]Gal(b1-4)Glc
# Procedure, shortened: as §1
# [15] = molecular target: Neu5Ac(a2-8)Neu5Gc(a2-3)Gal(b1-4)GlcNAc
# Procedure, shortened: as §1
# [16] = molecular target: Neu5Ac(b2-6)Gal(b1-4)GlcNAc
# Procedure, shortened: as §1
# [17] = molecular target: Neu5Ac(b2-6)GalNAc
# Procedure, shortened: as §1
# [18] = molecular target: Neu5Ac9Ac(a2-3)Gal(b1-3)GlcNAc
# Procedure, shortened: as §1
# [19] = molecular target: Neu5Ac9Ac(a2-3)Gal(b1-4)GlcNAc
# Procedure, shortened: as §1
# [20] = molecular target: Neu5Ac9Ac(a2-6)Gal(b1-4)GlcNAc
# Procedure, shortened: as §1
# [21] = molecular target: Neu5Gc(a2-3)Gal(b1-3)GlcNAc
# Procedure, shortened: as §1
# [22] = molecular target: Neu5Gc(a2-3)Gal(b1-3)[Fuc(a1-4)]GlcNAc
# Procedure, shortened: as §1
# [23] = molecular target: Neu5Gc(a2-3)Gal(b1-4)Glc
# Procedure, shortened: as §1
# [24] = molecular target: Neu5Gc(a2-3)Gal(b1-4)GlcNAc
# Procedure, shortened: as §1
# [25] = molecular target: Neu5Gc(a2-3)Gal(b1-4)GlcNAc(b1-3)Gal(b1-4)GlcNAc(b1-2)Man(a1-3)[Neu5Gc(a2-3)Gal(b1-4)GlcNAc(b1-3)Gal(b1-4)GlcNAc(b1-2)Man(a1-6)]Man(b1-4)GlcNAc(b1-4)GlcNAc
# Procedure, shortened: as §1
# [26] = molecular target: Neu5Gc(a2-3)Gal(b1-4)[Fuc(a1-3)]GlcNAc
# Procedure, shortened: as §1
# [27] = molecular target: Neu5Gc(a2-6)Gal(b1-4)GlcNAc
# Procedure, shortened: as §1
# [28] = molecular target: Neu5Gc(a2-6)GalNAc
# Procedure, shortened: as §1
# [29] = molecular target: Neu5Gc(a2-8)Neu5Ac(a2-3)Gal(b1-4)GlcNAc
# Procedure, shortened: as §1
# [30] = molecular target: Neu5Gc(a2-8)Neu5Gc(a2-3)Gal(b1-4)GlcNAc
# Procedure, shortened: as §1
# [31] = molecular target: Neu5Gc(a2-8)Neu5Gc(a2-3)Gal(b1-4)GlcNAc(b1-3)Gal(b1-4)GlcNAc
# Procedure, shortened: as §1
# [32] = molecular target: Neu5Gc(a2-8)Neu5Gc(a2-6)Gal(b1-4)GlcNAc
# Procedure, shortened: as §1
# [33] = molecular target: Neu5Gc(b2-6)Gal(b1-4)GlcNAc
# Procedure, shortened: as §1
binder,measurement,setting,value
MGL6A (Homo sapiens) (protein) MTRTYENFQYLENKVKVQGFKNGPLPLQSLLQRLCSGPCHLLLSLGLGLLLLVIICVVGFQNSKFQRDLVTLRTDFSNFTSNTVAEIQALTSQGSSLEETIASLKAEVEGFKQERQAVHSEMLLRVQQLVQDLKKLTCQVATLNNNGEEASTEGTCCPVNWVEHQDSCYWFSHSGMSWAEAEKYCQLKNAHLVVINSREEQNFVQKYLGSAYTWMGLSDPEGAWKWVDGTDYATGFQNWKPGQPDDWQGHGLGGGEDCAHFTPDGRWNDDVCQRPYHWVCEAGLGQTSQESH,glycan array binding signal (z-score),[1],-0.175
same,glycan array binding signal (z-score),[2],-0.175
same,glycan array binding signal (z-score),[3],-0.171
same,glycan array binding signal (z-score),[4],-0.164
same,glycan array binding signal (z-score),[5],-0.168
same,glycan array binding signal (z-score),[6],-0.174
same,glycan array binding signal (z-score),[7],-0.175
same,glycan array binding signal (z-score),[8],-0.176
same,glycan array binding signal (z-score),[9],0.155
same,glycan array binding signal (z-score),[10],-0.166
same,glycan array binding signal (z-score),[11],-0.176
same,glycan array binding signal (z-score),[12],-0.173
same,glycan array binding signal (z-score),[13],0.002
same,glycan array binding signal (z-score),[14],-0.123
same,glycan array binding signal (z-score),[15],-0.177
same,glycan array binding signal (z-score),[16],-0.179
same,glycan array binding signal (z-score),[17],-0.177
same,glycan array binding signal (z-score),[18],-0.175
same,glycan array binding signal (z-score),[19],-0.169
same,glycan array binding signal (z-score),[20],-0.173
same,glycan array binding signal (z-score),[21],-0.171
same,glycan array binding signal (z-score),[22],-0.174
same,glycan array binding signal (z-score),[23],-0.171
same,glycan array binding signal (z-score),[24],-0.175
same,glycan array binding signal (z-score),[25],-0.169
same,glycan array binding signal (z-score),[26],-0.166
same,glycan array binding signal (z-score),[27],-0.171
same,glycan array binding signal (z-score),[28],-0.17
same,glycan array binding signal (z-score),[29],-0.174
same,glycan array binding signal (z-score),[30],-0.176
same,glycan array binding signal (z-score),[31],-0.178
same,glycan array binding signal (z-score),[32],-0.173
same,glycan array binding signal (z-score),[33],-0.176
